These results are taken from US12583848B2, “Isoxazole-3-carboxamide derivatives and their use for treatment of diseases caused by virus infection” (Collaborations Pharmaceuticals, Inc., priority 2019, dated 2026).

The structures appear in SMILES notation.

For this assay, the system named is cytokines and chemokines in lung homogenates. The settings on record: mouse, in vivo.

As to `Cc1cc(-c2noc(C(F)(F)F)n2)ccc1OCCCc1cc(C(=O)N(C)C)no1` [Compound 8, N,N-dimethyl-5-(3-{2-methyl-4-[5-(trifluoromethyl)-1,2,4-oxadiazol-3-yl]phenoxy}propyl)isoxazole-3-carboxamide], the “lung concentration of IL-1α” value is listed as “increase”, the “lung concentration of IL-1α vs placebo” value is “increased”, the “lung concentration of IL-1β” value is “increase” and the “lung concentration of IL-1β vs placebo” value was “increased”. For the same molecule, the “lung concentration of IL-5 vs placebo” value was “increased”, the “lung concentration of IL-6” value is “increased” and the “lung concentration of IL-10” value is listed as “increase”.
